This is an account of results in article PMC7819943, “Rice protein-binding microarrays: a tool to detect cis-acting elements near promoter regions in rice”.

This is one part of the list.

This assay addresses T1, OsWOX13 (Oryza sativa, UniProt Q5QMM3 1-267).
T1 sequence: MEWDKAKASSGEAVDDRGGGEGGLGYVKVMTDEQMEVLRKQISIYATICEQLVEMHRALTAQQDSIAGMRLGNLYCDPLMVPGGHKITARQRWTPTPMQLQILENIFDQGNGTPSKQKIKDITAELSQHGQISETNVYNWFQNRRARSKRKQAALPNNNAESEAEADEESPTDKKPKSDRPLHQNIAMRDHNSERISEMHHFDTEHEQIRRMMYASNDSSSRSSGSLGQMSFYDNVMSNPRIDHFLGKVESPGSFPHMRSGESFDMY
As to the kind of experiment: protein-binding microarray (RPBM); PBS, 2% BSA, 51.3 ng/ul salmon testes DNA, 50 uM zinc acetate, 200 nM TF, 25 C, 1 h; high values mean tight binding. The note with it: protein: recombinant; tags: N-terminal polyhistidine and DsRed monomer fusion (pET32a); label: CyDye5-dUTP incorporated in the synthesized complementary strand; 3' TTTTT single-stranded linker to array surface; dsDNA, one strand shown. Put shortly: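 Per-feature fluorescence intensity (arbitrary units), read on an Axon 4000B scanner, is the binding signal. Transcription factors carrying an N-terminal polyhistidine tag and DsRed fusion were expressed in E. coli BL21-CodonPlus and purified on Ni–NTA. A custom Agilent array, made double-stranded by primer extension with Cy5-dUTP and blocked with 2% BSA, was incubated with 200 nM protein in PBS, 2% BSA, salmon testes DNA and 50 µM zinc acetate at 25 °C for 1 h and then washed.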
In the case of “GCAACATTTAAAACACTAAATTAGTTTTATTGGTATAGTACGGAGTCACCTAGTGCAG”, the binding signal is 3620 fluorescence intensity (a.u.). Consider “TATTTAATATCAAATTTAATGAAATTATTTAATTTGGTATCGGAGTCACCTAGTGCAG”, for which the binding signal is 13200 fluorescence intensity (a.u.). “CTTATTAACATTTAATTTGGTTTCTTCCTTAATTTGTATCCGGAGTCACCTAGTGCAG”: the binding signal was 12600 fluorescence intensity (a.u.). Take “ATGTTGACAGACAAAATGACATAACATCCAGAATAAAGAACGGAGTCACCTAGTGCAG”: the binding signal was 11300 fluorescence intensity (a.u.). “CACACCAAATTAAATACTCTATCTGTTAGTGAGATCCCAACGGAGTCACCTAGTGCAG”: the binding signal was 3880 fluorescence intensity (a.u.). In the case of “ACTAGGGTCCTATTTAATTTGTAATCAAAACATTCGAATTCGGAGTCACCTAGTGCAG”, the binding signal is 3570 fluorescence intensity (a.u.). Take “TTCCTGATTTTGTGGTTCTAGACCACCTCTGGCTTGCAGCCGGAGTCACCTAGTGCAG”: the binding signal is 3470 fluorescence intensity (a.u.). Take “TTTGTGATGATTTATTAATACCTGAAACTCAATTAGGTTCCGGAGTCACCTAGTGCAG”: the binding signal is 27200 fluorescence intensity (a.u.). For “GTATCTGGCCCATCAATCCATCACGCTCTTACGGCCCAGACGGAGTCACCTAGTGCAG”, the binding signal is 5350 fluorescence intensity (a.u.). Consider “TGTTATTTCAGTTATTGATTTCGATTACTCTAGGCCGCAACGGAGTCACCTAGTGCAG”, for which the binding signal is 9300 fluorescence intensity (a.u.). For the sequence “AATACTAATTATGCATGGTAGTGCAATGTTTGTACTCCACCGGAGTCACCTAGTGCAG”, the binding signal was 16900 fluorescence intensity (a.u.). In the case of “AATAAATGGAGTAAACTTTAGAAATGAATCTGAATACACGCGGAGTCACCTAGTGCAG” it was 4550 fluorescence intensity (a.u.). Regarding “TTTCGTAATCACAATCTTATATGATATTGTCTCCATCCTACGGAGTCACCTAGTGCAG”, the binding signal was 9400 fluorescence intensity (a.u.).

In the case of “CCATTGACAGGTGGGCCCACCCCATCTTTAGCAGTTAATTCGGAGTCACCTAGTGCAG”, the binding signal is 3940 fluorescence intensity (a.u.). Take “AAGTCATGGATGATTGACACGAGAAAATCATCTAATGTCGCGGAGTCACCTAGTGCAG”: the binding signal is 43800 fluorescence intensity (a.u.). As to “ATAAATGATTAAAATTACCTTTACCCGTTGCAACGCACGGCGGAGTCACCTAGTGCAG”, the binding signal was 42400 fluorescence intensity (a.u.). With “GTTATTGATTTCTATATAATACATTGGAGTTTCAAAACTACGGAGTCACCTAGTGCAG”, the binding signal is 12400 fluorescence intensity (a.u.).

On to “TATGATATATTATAATACTATACAGATTTGTGGGGTTAGACGGAGTCACCTAGTGCAG”, for which the binding signal was 4130 fluorescence intensity (a.u.). The figure for “ATATTTATTTAAATTAGACTAAATTTTGTTCAAAATTTTGCGGAGTCACCTAGTGCAG” is 13200 fluorescence intensity (a.u.); for “ACAGTGTAATTACACTATGATTGTACTGTAATTACATTTGCGGAGTCACCTAGTGCAG” it is 44000 fluorescence intensity (a.u.). With “TTTTGATGGAAATTTTAATAGTCAACTCATGGTCAACTAACGGAGTCACCTAGTGCAG”, the binding signal was 15000 fluorescence intensity (a.u.). For “AGCAGCTAACATTAATTAACCGGCCGGAATATATATATTGCGGAGTCACCTAGTGCAG”, the binding signal is 4840 fluorescence intensity (a.u.). The figure for “AACTCCATCACATCCTTAATTTGCAGCAGCAGGTAATTGTCGGAGTCACCTAGTGCAG” is 13400 fluorescence intensity (a.u.).
